Results on 53 molecules are retold here after PubChem BioAssay AID1347073 (National Center for Advancing Translational Sciences (NCATS), 2019).

Hit rate of the full screen: of about 45,000 compounds, about 200 (0.44%) were called active. Inconclusive results (about 7%) are left out. Calls come from the whole dose curve; as a rule, active = well fitted activation curve with a large enough effect; inconclusive = small, poorly fitted or top-dose-only effect; inactive = no such curve, though single readings can be large or run the other way. The list shows a part of the results.
Potency is the fitted concentration of half-maximal effect.

This assay in a line: qHTS of TDP-43 Inhibitors: NCGC Sytravon Library Screen. For growth rescue (activation): 0% is about no effect. Note: nearly all actives have a fitted effect of over 55% in size. The conditions noted are these: yeast TDP-43 toxicity rescue, BacTiter-Glo growth, 24 h; series mostly up to 46.1 µM; growth rescue (activation): at the top concentration. Summed up:
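TDP-43-expressing yeast, pregrown in raffinose, seeded at OD600 0.02 in galactose medium with compound for 24 hr at 30 deg C. Growth read by BacTiter-Glo luminescence, so rescue of toxicity appears as activation.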
(In general: In qHTS, concentration-response curves come from the screen itself.)
Regarding `COc1ccc(N(C(=O)Cn2nnc(-c3ccc(C)o3)n2)C(C(=O)NC2CCCC2)c2ccncc2)cc1` (stereo not drawn), the “growth rescue (activation)” value was inactive: -18.1%.

As for `O=C(COc1ccc(S(=O)(=O)N2CCOCC2)cc1Cl)NCc1ccccn1`, the “growth rescue (activation)” value was inactive: 12%. Still for that read-out and setting: next, `CCOC(=O)c1cnc2c(-c3ccccc3)cnn2c1C`: inactive: -1.33%. Turning to `O=C(c1cccnc1)N(c1cc2sc(=O)oc2c2ccccc12)S(=O)(=O)c1ccccc1`, the “growth rescue (activation)” value was inactive: 11.2%.

Consider `C[n+]1cccc(C(=O)N/N=C/c2ccc3c(c2)OCO3)c1`, for which the “growth rescue (activation)” value is inactive: 1.56%. As for `Nc1ccc(N2CCOCC2)c(S(=O)(=O)Nc2cc(Cl)ccc2Cl)c1`, the “growth rescue (activation)” value is inactive: 8.85%.

`Cc1ccc(S(=O)(=O)N2CCC(C(=O)NNC(=O)c3ccncc3)CC2)cc1`: the “growth rescue (activation)” value was inactive: 9.02%.

Take `CSc1ccc(CN2CCN(S(=O)(=O)Cc3ccccc3)CC2)cc1`: the “growth rescue (activation)” value was inactive: 4.67%. On to `O=C(COC(=O)c1ccc(Cl)c(S(=O)(=O)N2CCCC2)c1)NCc1ccccc1`, for which the “growth rescue (activation)” value is inactive: 6.71%. On to `Cc1nn(-c2ccc(Cl)cc2)c(=O)c2ccccc12`, for which the “growth rescue (activation)” value is inactive: 19%. On the same count and under the same terms, the figure for `COc1cccc(C(=O)OCC(=O)NC23CC4CC(CC(C4)C2)C3)c1` is inactive: 38.3%; for `COc1ccc([N+](=O)[O-])cc1N(CC(=O)O)S(C)(=O)=O` it is inactive: -4.43%; for `C=CCNc1ncnc2c1ncn2[C@H]1CN(CCc2ccccc2)C[C@@H](CO)O1` it is inactive: 10.7%. Still for that read-out and setting: the figure for `Cc1csc(-c2cc(C(=O)NCc3cc(C(F)(F)F)cc(C(F)(F)F)c3)n[nH]2)c1` is inactive: 7.72%; for `FC(F)(F)c1ccc(N/N=C/c2cccnc2)nc1` it is inactive: -0.734%.

Take `Cc1cccc(C)c1C(O)c1ncc(-c2cccc(F)c2)[nH]1` (stereo not drawn): the “growth rescue (activation)” value was inactive: 6.21%. Still for that read-out and setting: the figure for `COc1ccc(OC)c(CN2CCCC(CCC(=O)N(C)CCc3ccccn3)C2)c1` (stereo not drawn) is inactive: -5.57%. In the case of `CC(C)C(=O)N1CCCC1(C)C(=O)NCc1ccc(Cl)cc1` (stereo not drawn), the “growth rescue (activation)” value is inactive: 5.71%.

In the case of `Cc1ccc(C)c(N(CC(=O)NC2CCCC2)C(=O)CNC(=O)c2cccs2)c1`, the “growth rescue (activation)” value is inactive: -1.41%. Still for that read-out and setting: the figure for `CCCC1=[N+](CC(=O)c2ccc(C)cc2)CCn2cccc21` is inactive: 28.1%; for `COc1ccc(NC(=O)COC(=O)CCc2cc(OC)c(OC)c(OC)c2)c([N+](=O)[O-])c1` it is inactive: 8.34%; for `COc1ccc(C)cc1NC(=O)COC(=O)C1CCN(C(=O)c2ccc(Cl)cc2)CC1` it is inactive: 7.69%.

With `Cc1ccc(NC(=O)c2ccccc2)cc1-n1cnnn1`, the “growth rescue (activation)” value was inactive: 2.79%.

Take `O=C(O)CS(=O)(=O)CC(=O)NCc1cccc(C(F)(F)F)c1`: the “growth rescue (activation)” value was inactive: -5.92%. The same measure, in the same setting: next, `COc1ccc([N+](=O)[O-])cc1N(CC(=O)NCCCOC(C)C)S(C)(=O)=O`: inactive: -5.31%; `COc1ccc2[nH]c3c(=O)n(Cc4ccc(C(=O)N5CCCC5)cc4)c(=S)[nH]c3c2c1`: inactive: -15%. In the case of `CC(C(=O)O)N1C(=O)/C(=C/C=C/c2ccco2)SC1=S` (stereo not drawn), the “growth rescue (activation)” value was inactive: 8.16%. On the same count and under the same terms, next, `O=C(O)c1cccc(Cn2cc(Br)cn2)c1`: inactive: 17.1%; `CCCCSc1nc(C)cc(SCC(=O)N/N=C/c2ccccc2)n1`: inactive: 13%; `Cn1cc(CN2CCCC(C(=O)c3nccn3C)C2)c(-c2cccc(Cl)c2)n1` (stereo not drawn): inactive: -5.73%. On to `C/C(CC(=O)Nc1ccc(N(C)C)cc1)=N\NC(=O)C(=O)NCc1ccccc1`, for which the “growth rescue (activation)” value was inactive: 5.11%.

In the case of `O=C(CNC(=O)c1ccco1)N/N=C/c1ccc(C(=O)O)cc1`, the “growth rescue (activation)” value is inactive: 13.4%. `COc1ccc(N(CC(=O)N2CCN(c3cccc(C)c3)C(C)C2)S(=O)(=O)c2c(C)n[nH]c2C)cc1` (stereo not drawn): the “growth rescue (activation)” value is inactive: 9.04%. Consider `Cc1cc(C)nc(NC(=O)NS(=O)(=O)Nc2ccc(Br)cn2)n1`, for which the “growth rescue (activation)” value was inactive: 17.2%. On the same count and under the same terms, the figure for `CC(=O)Nc1ccc(NC(=O)c2cc(-c3cc(F)ccc3OCC3CCCO3)n[nH]2)cc1` (stereo not drawn) is inactive: 12.3%; for `Cc1sc2nc(SCC(=O)Nc3ccccc3F)[nH]c(=O)c2c1C` it is inactive: -5.77%; for `Cn1c(=O)c(C(=O)NNC(=O)c2ccccc2Cl)c(O)c2ccccc21` it is inactive: -39.6%. Turning to `CCC1(c2ccccc2)NC(=O)N(CC(=O)N(C)Cc2ccccc2)C1=O` (stereo not drawn), the “growth rescue (activation)” value is inactive: 5.83%.

Take `O=C(c1ccc(F)cc1)N1CCC(n2nnc3ccccc32)CC1`: the “growth rescue (activation)” value is inactive: 1.07%. The same measure, in the same setting: next, `O=C(Cc1ccccc1)N/N=C/c1cccn1-c1ccc([N+](=O)[O-])cc1`: inactive: 17.8%. For the molecule `CCC(CC)c1nnc(NC(=O)C2CCN(C(=O)c3ccco3)CC2)s1`, the “growth rescue (activation)” value is inactive: -5.85%.

As to `COc1c(Cl)cc(Cl)cc1C(=O)Nc1ccc(CN2CCCCC2)cc1`, the “growth rescue (activation)” value is inactive: 1.5%. The same measure, in the same setting: next, `CN(C(=O)c1ccc2c(c1)CCN2S(C)(=O)=O)c1ccccc1`: inactive: 2.26%. In the case of `O=C(CCN1C(=O)/C(=C\c2ccccc2)SC1=S)NNC(=O)c1cccnc1`, the “growth rescue (activation)” value was inactive: 6.11%. Consider `N/C(Cc1ccc([N+](=O)[O-])cc1)=N\OC(=O)c1ccc2ccccc2c1`, for which the Potency was active: 8.91 µM. Take `CCOC(=O)C1CCN(C(=O)COc2cccc3ccccc23)CC1`: the “growth rescue (activation)” value was inactive: 14.4%. Same read-out and setting: next, `Cn1nnc(NC(=S)NC(=O)Cc2ccccc2)n1`: inactive: -11.2%; `O=C(NN1C(=O)C2C3c4ccccc4C(c4ccccc43)C2C1=O)C1CC1` (stereo not drawn): inactive: 17.4%. On the same count and under the same terms, next, `O=C1C2C3C=CC(C3)C2C(=O)N1/N=C/c1cc(Br)cc([N+](=O)[O-])c1O` (stereo not drawn): inactive: -93.8%; `Nc1nc(SCC(=O)c2ccc(F)cc2)n[nH]1`: inactive: 12.2%; `O=S(=O)(Nc1cc(Sc2ncn[nH]2)c(O)c2ccccc12)c1ccccc1`: inactive: -96%. Same read-out and setting: next, `Cc1ccc(/C=N\NC(=O)COc2ccc(C)cc2[N+](=O)[O-])cc1`: inactive: 10.4%. As to `COCCNc1nc(Oc2ccc(Cl)c(Cl)c2)c2sccc2n1`, the “growth rescue (activation)” value was inactive: 21.9%.
